Among all 310,000 compounds or so, about 14,000 (4.5%) showed an effect of 50% or more. The effect is printed as a negative number. The list shows a part of the results.
The compounds below were run against human ether-à-go-go-related gene (hERG) potassium channel (human, UniProt Q12809) (assay: primary screen, population patch clamp on CHO cells stably expressing hERG).
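Also: peak tail current of the secondary pulse compared with the same well before compound.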

Chain of human ether-à-go-go-related gene (hERG) potassium channel (Q12809 whole entry, looked up): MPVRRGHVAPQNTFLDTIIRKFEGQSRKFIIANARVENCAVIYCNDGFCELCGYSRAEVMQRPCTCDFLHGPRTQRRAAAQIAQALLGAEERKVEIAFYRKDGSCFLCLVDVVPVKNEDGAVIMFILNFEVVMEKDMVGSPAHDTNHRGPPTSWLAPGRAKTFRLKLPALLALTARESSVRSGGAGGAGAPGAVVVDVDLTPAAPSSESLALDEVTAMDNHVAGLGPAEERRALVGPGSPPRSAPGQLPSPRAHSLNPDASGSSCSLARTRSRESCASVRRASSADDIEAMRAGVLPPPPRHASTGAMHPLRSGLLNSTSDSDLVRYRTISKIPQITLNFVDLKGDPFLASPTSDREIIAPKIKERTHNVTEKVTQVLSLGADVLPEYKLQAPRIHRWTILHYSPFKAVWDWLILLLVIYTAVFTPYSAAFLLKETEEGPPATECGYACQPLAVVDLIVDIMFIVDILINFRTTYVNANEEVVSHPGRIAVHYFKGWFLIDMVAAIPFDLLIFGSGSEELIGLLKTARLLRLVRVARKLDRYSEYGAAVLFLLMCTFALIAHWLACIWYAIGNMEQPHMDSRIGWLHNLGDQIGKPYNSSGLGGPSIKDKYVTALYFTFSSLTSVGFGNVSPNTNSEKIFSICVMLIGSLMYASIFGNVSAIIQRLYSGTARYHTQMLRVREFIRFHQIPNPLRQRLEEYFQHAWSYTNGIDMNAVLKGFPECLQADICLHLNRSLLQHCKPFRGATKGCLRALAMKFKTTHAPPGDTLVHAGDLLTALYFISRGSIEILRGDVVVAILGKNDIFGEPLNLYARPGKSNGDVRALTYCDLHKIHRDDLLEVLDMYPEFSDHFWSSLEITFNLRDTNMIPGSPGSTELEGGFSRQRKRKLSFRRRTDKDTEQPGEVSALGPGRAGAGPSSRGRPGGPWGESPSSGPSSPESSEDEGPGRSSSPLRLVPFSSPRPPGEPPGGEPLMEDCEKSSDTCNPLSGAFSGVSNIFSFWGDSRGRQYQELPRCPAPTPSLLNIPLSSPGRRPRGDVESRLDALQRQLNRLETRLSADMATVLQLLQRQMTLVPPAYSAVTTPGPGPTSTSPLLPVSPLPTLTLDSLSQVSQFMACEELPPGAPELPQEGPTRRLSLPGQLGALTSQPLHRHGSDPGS

Compound	hERG current change (%, negative = inhibition) at 10uM [%]
Cn1c(=O)c(C(=O)NCCO)c(O)c2ccccc21	4.01
CSc1ccccc1NC(=S)N/N=C/c1cccn1Cc1ccc(F)cc1	-6.67
O=C(O)C1C2C=CC(C2)C1C(=O)NCCc1ccncc1 (stereo not drawn)	18.4
CC(=O)NC(=S)Nc1ccc(NC(=O)COc2ccc(Cl)cc2Cl)cc1	15.7
O=C(Cc1ccccc1F)NC1CCCN(Cc2ccc(Cl)cc2)C1 (stereo not drawn)	-33.7
CCOC(=O)CN(C(=O)CNC(=O)c1cccs1)C(C(=O)NC1CCCCC1)c1cccs1 (stereo not drawn)	-1.88
O=C(N/N=C/c1cccc(O)c1)c1ccc2c(c1)OCCO2	8.19
CCn1c(CCNC(=O)c2ccc(OC)cc2)nnc1SCc1ccc(Cl)c(Cl)c1	-61.8
CC(C)(C)NCC(=O)N/N=C/c1ccc(OCc2ccccc2)cc1	-60.5
COc1ccc(CNC(=O)CN(Cc2ccco2)C(=O)CNS(=O)(=O)c2ccccc2)cc1	-38.7
O=c1[nH]c(/C=C/c2ccccn2)nc2ccccc12	11.1
O=C1c2ccccc2C(=O)N1CSc1nnc2c3ccccc3n(CCc3ccccc3)c2n1	14.4
CC(C)C(C)NC(=O)COC(=O)c1cccc(C(=O)OCC(=O)NC(C)C(C)C)n1 (stereo not drawn)	-2.56
Cc1ccc(S(=O)(=O)NC(CC(C)C)C(=O)NCCCn2nc(C)cc2C)cc1 (stereo not drawn)	0.672
COc1cc(C(=O)Nc2scc(-c3ccc(Br)cc3)c2C(=O)O)cc(OC)c1OC	20.8
O=C(CN1CCCCCC1)Nc1ccc(Br)cc1	-32.3
O=S(=O)(c1ccc(-c2nnc(SCc3nnc(-c4ccccc4)o3)o2)cc1)N1CCCC1	0.461
O=C(NCC(c1ccco1)N1CCN(c2ccccc2F)CC1)c1cccs1 (stereo not drawn)	-8.98
CC(=O)c1ccc(O)c(CO)c1	-3.53
Cn1ccnc1SCC(=O)Nc1ccc(Oc2ccccc2)cc1	-4.32
O=C1CC2(CCN(C(=O)c3ccccc3Cl)CC2)Oc2ccccc21	-72.7
Cc1cc[n+](Cc2ccccc2)cc1.[O-][Cl+3]([O-])([O-])[O-]	18.9

Compound	hERG current change (%, negative = inhibition) at 10uM [%]
O=C(Nc1ccc(Oc2cccc(C(F)(F)F)c2)nc1)c1ccco1	13.5
C/C(Cc1ccccc1)=N\NC(=O)CNC(=O)c1ccc(Cl)cc1Cl	-12.4
Cc1cc(=O)c2ccccc2n1Cc1ccccc1	-27.9
Cc1ccc(CSc2nc3nc(C)cc(C)n3n2)cc1	-9.77
CCC(C(=O)N1CCCC1)n1nc(C)c2c(C)n(-c3ccccc3)nc2c1=O (stereo not drawn)	-4.28
CC(NC(=O)c1ccc(N2CCCC2=O)cc1)c1ccccc1 (stereo not drawn)	-5.21
CCOC(=O)c1nn(-c2ccc(C)cc2)c(=O)cc1OCC(=O)Nc1cc(C)ccc1OC	-2.12
CCOC(=O)N1CCN(C(=O)c2ccc(Cl)c(S(=O)(=O)N3CCCC3)c2)CC1	2.38
Cc1cccn2c(=O)c3cc(C(=O)NCCc4ccccc4)c(=N)n(Cc4ccco4)c3nc12	-74
COc1ccc(CNC(=O)C2CCC(=O)N(CC3CCCCC3)C2)cc1 (stereo not drawn)	-5.93
COc1ccc(C(=O)CSc2ncnc3nc[nH]c23)cc1	4.35
O=C(NCCCN1CCOCC1)c1cc(Cl)ccc1OCc1ccccc1	-55.7
CCC(C)NC(=O)C1(NC(=O)Nc2ccccc2)CCCCC1 (stereo not drawn)	23
CCN(CC)C(=O)COc1coc(CN2CCN(c3ccccc3F)CC2)cc1=O	2.56
Cc1ccc(N(CC(=O)NC2CCCCCC2)S(=O)(=O)c2c(C)nn(C)c2C)cc1	-21.7
CN(C)c1ccc(N=Nc2ccc(C(=O)O)cc2)cc1	9.66
COC(=O)c1c(NC(=O)CN2CCN(c3ccccc3)CC2)c2c(C)cccc2n1C	-8.56
CCN(CC)S(=O)(=O)c1ccc(C)c(NC(=S)NNC(=O)C2CC2)c1	11.1
Cn1cnc2c(N/N=C/c3cccs3)ncnc21	15.5
CC1CCN(C(=O)CCc2ccc(Oc3cc([N+](=O)[O-])cc([N+](=O)[O-])c3)cc2)CC1	-25.9
CC1CCN(C(=O)CNC(=O)CNC(=O)Cc2ccccc2)CC1	4.9
COc1cc(NC(=O)NCC2CCN(Cc3ccc(C)cc3)CC2)cc(OC)c1OC	-0.392

Compound	hERG current change (%, negative = inhibition) at 10uM [%]
Cc1noc(C)c1C(=O)OCC(=O)c1c[nH]c2ccccc12	2.44
Cc1nn(C)cc1/C=C/C(=O)c1cccs1	-12.3
Cc1nc(-c2ccccc2)sc1C1(C)CC(c2cccc([N+](=O)[O-])c2)=NO1 (stereo not drawn)	13.4
COc1ccc(S(=O)(=O)NC(CC(=O)NCCc2ccc(OC)c(OC)c2)c2ccco2)cc1 (stereo not drawn)	-8.6
C=CCn1c(SCC(=O)Nc2sccc2C(N)=O)nc2sc(CC)cc2c1=O	-1.95
Cc1ccc(NC(=O)Nc2c(Cl)cccc2Cl)cn1	14
Cc1ccccc1C(=O)NCCNc1ccc([N+](=O)[O-])cc1	-10.1
Cc1[nH]c2ccccc2c1/C=N/Nc1nncn1N.Cl	10
Cc1nc(SCC(=O)NC2CCS(=O)(=O)C2)c2c(C)c(C)sc2n1 (stereo not drawn)	6.15
O=C(O)c1nn(CC(=O)N2CCN(c3ncc(C(F)(F)F)cc3Cl)CC2)c(=O)c2ccccc12	-18.9
CCOC(=O)Cc1csc(SCC(=O)Nc2cc(C)ccc2OC)n1	21.3
COc1ccc(NC(=O)[C@H](NC(=O)[C@@H]2Cc3ccccc3CN2)c2ccccc2)cc1	-50.3
CCOc1ccc(NC(=O)CCc2nnc3ccc(N4CCC5(CC4)OCCO5)nn23)cc1	5.36
O=C(Nc1ccc(Cl)c(C(F)(F)F)c1)[C@@H]1CC=C[C@@H]2CCN(C3CC3)C(=O)[C@@H]21	-5.36
COc1cc(S(=O)(=O)Nc2ccccc2)ccc1N=Cc1c(C)[nH]n(-c2ccc(C)cc2)c1=O	7.88
O=C(OCc1nnc(-c2ccccc2)o1)c1ccc2ccccc2n1	8.19
Cc1cc(C)cc(NC(=S)Nc2cccc3ccccc23)c1	-14.6
CCOC(=O)c1c(C)c(C(=O)Nc2ccc(N(C)C)cc2)c(C)n1CC	-1.83
COc1ccc(S(=O)(=O)N2CCOC2CNC(=O)C(=O)NCc2ccco2)cc1 (stereo not drawn)	-17.8
Cc1cc(C)n(-c2ccc(C(=O)NC3CCCCC3)cc2)n1	12.7
CCOC(=O)NCC(C)(C)CNC(=O)OCC	11.4
C[C@@H]1C2C[C@@]34COC(=O)C3=CC=C[C@H]4[C@@]13C[C@H](c1ccoc1)O[C@@H]3O2	-34.2

Compound	hERG current change (%, negative = inhibition) at 10uM [%]
NC1=NC(=O)CC(C(=O)NCc2ccccc2)S1 (stereo not drawn)	16.8
CC1(C)CC2CC(C)(CN2C(=O)c2cc(-c3ccccc3O)on2)C1 (stereo not drawn)	12.7
Cn1cc(C(=O)OCC2CCN(CCNS(C)(=O)=O)CC2)c2ccccc21	-37.2
COc1cc(C2NC(=O)CS2)cc(OC)c1OC (stereo not drawn)	-2.54
Clc1ccc2nc(-c3ccccc3)cn2c1	12.9
Cc1cc(=O)n2nc(N3CCCC(C(=O)N4CCN(C)CC4)C3)sc2n1 (stereo not drawn)	-7.39
CC1(C)Cc2c(C#N)c(NCCN3CCOCC3)nc(-c3ccco3)c2CO1	-6.23
COC(=O)c1nn(-c2ccc(OC)cc2)c(=O)cc1Oc1ccccc1	-12.6
C=CCn1c(C(C)NC(=O)c2cccs2)n[nH]c1=S (stereo not drawn)	5.32
COc1cc2c(cc1OC)C(c1ccc([N+](=O)[O-])cc1)N(C(C)=O)CC2 (stereo not drawn)	-4.99
COc1ccc(OCC(=O)NC2CCCc3ccccc32)cc1 (stereo not drawn)	10.9
O=C(NCc1ccccn1)Nc1cccc(Cl)c1Cl	9.25
CCn1c(CNc2ccc(OC)cc2)nnc1SCC(=O)Nc1ccc(F)cc1	-29.9
COc1ccc(CNC(=O)C2CCCN(S(=O)(=O)c3cccc4nsnc34)C2)cc1 (stereo not drawn)	-10.2
CCOC(=O)C1=C(COC(=O)c2cc(S(=O)(=O)N(C)C)ccc2C)NC(=O)NC1C (stereo not drawn)	-21.3
O=C1CC(N2CCC(c3nc4ccccc4[nH]3)CC2)C(=O)N1c1ccccc1F (stereo not drawn)	-6.91
COc1ccc(C(C(=O)NC2CCCC2)N(C(=O)c2snc(C(N)=O)c2N)c2cc(C)ccc2OC)cc1OC (stereo not drawn)	-2.45
CCCCn1c2c(c(=N)c3ccccc31)CCC2.I	-50.3
COc1ccc(C2CC(c3cccs3)=NN2S(=O)(=O)c2ccc(C)cc2)cc1 (stereo not drawn)	6.02
Cc1cc(C)c2c(n1)SCC(=O)N2CC(=O)Nc1ccc(Br)c(C)c1	-29.7
Cc1nc(CC(=O)Nc2nc(-c3ccccc3)cs2)cs1	-8.56

— publication PMC4336329 (PLoS ONE, 2015)
